# Experimental data: the supplement of paper PMC4166925
# ± gives the standard deviation of the averaged measurements. The full ranking holds about 33,000 sequences; the median of “E-score (dimensionless, -0.5 to 0.5)” is about -0.049, and the highest 2% start at about 0.37. The list shows a part of the results.
# System: T1, PmTbr T-box DNA-binding domain (GST fusion)
# T1 sequence: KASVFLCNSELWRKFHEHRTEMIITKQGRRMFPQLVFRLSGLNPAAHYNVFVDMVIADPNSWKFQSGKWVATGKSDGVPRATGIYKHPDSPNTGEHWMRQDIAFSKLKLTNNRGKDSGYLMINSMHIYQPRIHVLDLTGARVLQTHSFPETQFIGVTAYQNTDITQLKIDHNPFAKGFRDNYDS
# Experiment: PBM E-score of 8-mer (E-score (dimensionless, -0.5 to 0.5)); Tbr is Tbrain of the sea star Patiria miniata (Pm) or the sea urchin Strongylocentrotus purpuratus (Sp); higher = stronger binding preference; most listed sequences are background and not binding sites
# Settings: the construct has about 5 more residues each side
# Summary of the method: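 Primer extension turned Universal Agilent oligonucleotide arrays double-stranded. They were incubated with 200 nM protein in PBS (pH 7.5); the protein was a GST-fused Tbr T-box DNA-binding domain expressed in BL21 E. coli at 20 °C and purified on glutathione. Every ungapped 8-mer was scored from the scanned, quantified probe intensities, and the Universal PBM Analysis Suite gave each an enrichment E-score averaged over duplicate arrays.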
row,Sequence,PBM E-score of 8-mer
1,GTAGCCCA,-0.311 ± 0.012
2,GCAGGGGA,-0.161 ± 0.04
3,AGCCTGGC,0.00368 ± 0.04
4,CGGAACGC,0.0456 ± 0.012
5,CGGACCTC,-0.176 ± 0.027
6,GCTATAGA,-0.0638 ± 0.0077
7,CCGGAGTC,-0.172 ± 0.011
8,CGAGACTA,-0.122 ± 0.059
9,CGCTTGGC,-0.0524 ± 0.1
10,AGTTTAAC,0.0571 ± 0.0041
11,GATGCGGC,-0.0897 ± 0.081
12,AGTAGACC,-0.297 ± 0.031
13,CTGCCTGC,-0.128 ± 0.065
14,CACCCCTA,0.246 ± 0.033
15,CACCGCCG,0.145 ± 0.074
16,CAATATGA,-0.0875 ± 0.0034
17,ATACCCTA,0.0205 ± 0.0012
18,AATCTCTA,-0.0865 ± 0.062
19,CGTTGCAA,-0.0113 ± 0.0031
20,GCTAAGAC,0.0195 ± 0.0095
21,CTGTATCC,-0.268 ± 0.015
22,CAAGCTCG,0.195 ± 0.053
23,ATAAACGC,-0.125 ± 0.03
24,CCGTTGGC,0.151 ± 0.01
25,GTGTTTTA,0.211 ± 0.083

row,Sequence,PBM E-score of 8-mer
1,CCTCCGGA,-0.197 ± 0.05
2,AACGAGGT,0.0204 ± 0.022
3,CCGAGCAG,-0.221 ± 0.017
4,AACACCAG,0.335 ± 0.022
5,ATTAACCA,-0.0953 ± 0.0089
6,AACTGGTA,-0.129 ± 0.099
7,TTTCAAAA,-0.327 ± 0.0076
8,TAGGGGGA,-0.277 ± 0.092
9,AGTACACT,-0.131 ± 0.043
10,GTTCCGAA,-0.095 ± 0.058
11,TCAGCAGA,0.0225 ± 0.013
12,CTATATTC,-0.133 ± 0.067
13,ACGAGGCT,-0.139 ± 0.012
14,CTAATGGA,-0.217 ± 0.086
15,CCCCGATC,-0.143 ± 0.034
16,GGGCATGA,-0.0934 ± 0.074
17,GTCCCTCA,-0.119 ± 0.031
18,CGGTCTCA,-0.00821 ± 0.039
19,GTCAAGCA,0.0866 ± 0.074
20,AGTTAAAT,0.0456 ± 0.055
21,ATTCAACC,-0.322 ± 0.052
22,TAAGTGGA,-0.141 ± 0.0053
23,AGTCGCTG,-0.0736 ± 0.038
24,ATCTCCAA,-0.0417 ± 0.024
25,CCGGAAGC,-0.135 ± 0.031

row,Sequence,PBM E-score of 8-mer
1,ACAGTAAG,-0.0467 ± 0.055
2,TAACTGCA,-0.191 ± 0.061
3,CTACAATA,-0.163 ± 0.18
4,CGCTCGTA,-0.182 ± 0.024
5,AAGTGAGA,0.429 ± 0.0088
6,TAGCGGGA,0.0951 ± 0.026
7,GCTACAAC,-0.0921 ± 0.011
8,ATTCTCTC,0.116 ± 0.017
9,ATCATCAA,-0.142 ± 0.071
10,TCGATGAA,-0.145 ± 0.096
11,GAGACGAA,0.0384 ± 0.0069
12,CGAGACCC,-0.0652 ± 0.0067
13,CGTGTTCC,-0.0107 ± 0.018
14,CTTCGTTC,-0.232 ± 0.01
15,GCGTCTCC,-0.135 ± 0.039
16,ATAATGAT,-0.0812 ± 0.017
17,GAAAAAAC,-0.089 ± 0.079
18,CTTTCTCA,0.0644 ± 0.086
19,AGGTGCCA,0.4761 ± 0.0036
20,CTTGATGC,-0.217 ± 0.026
21,AGATGGAG,-0.163 ± 0.016
22,CACCTGGC,0.427 ± 0.007
23,GAGTAGGC,-0.211 ± 0.074
24,ATACCACA,0.0618 ± 0.03
25,ATACGGTA,-0.105 ± 0.025

row,Sequence,PBM E-score of 8-mer
1,GCGGTAGC,0.0133 ± 0.021
2,ACCCAACC,-0.112 ± 0.0036
3,TCGGCAGA,-0.133 ± 0.034
4,AAGAACTT,-0.0867 ± 0.021
5,CCAATCTC,-0.0504 ± 0.045
6,ACCTAACC,0.11 ± 0.009
7,GTATCTTA,-0.15 ± 0.027
8,CCAAATAA,-0.259 ± 0.013
9,ATGGTATG,-0.138 ± 0.029
10,AAATCAAG,0.137 ± 0.074
11,ACATGACA,0.287 ± 0.0097
12,ACCGCTTC,0.0527 ± 0.056
13,CCAGGTGA,0.339 ± 0.023
14,AGGGGGAC,-0.247 ± 0.025
15,TCAAATAA,0.0138 ± 0.054
16,ATTTCTCA,0.0962 ± 0.15
17,ATGGGTTC,-0.264 ± 0.003
18,AGGGTATA,-0.0275 ± 0.05
19,ACTGTAGA,0.0339 ± 0.022
20,CAGGTCGC,0.184 ± 0.047
21,CGGGGTAC,0.031 ± 0.066
22,CTCCTTTC,-0.102 ± 0.022
23,CAGCGTAC,-0.142 ± 0.083
24,AAGCTTTA,-0.201 ± 0.028
25,ACACTTCC,0.428 ± 0.016

row,Sequence,PBM E-score of 8-mer
1,GACCCAAC,-0.126 ± 0.095
2,CCAAGGCA,-0.123 ± 0.056
3,ACCGTGTC,0.1606 ± 0.0013
4,GGGTCGAC,-0.0711 ± 0.048
5,CTCCGGCA,0.107 ± 0.12
6,AATGTCGC,0.224 ± 0.023
7,GGTCGCAA,0.205 ± 0.0044
8,GCGGGGGA,-0.0529 ± 0.066
9,ATCACTTG,0.216 ± 0.045
10,CCATCACC,0.245 ± 0.032
11,ATATAGGA,-0.275 ± 0.021
12,GCCTATCA,0.144 ± 0.011
13,ATGTGATC,0.0403 ± 0.026
14,CGTATAAA,-0.18 ± 0.015
15,CTACGCGC,0.187 ± 0.022
16,GCGATTGA,0.00864 ± 0.027
17,GCGGTGAC,0.152 ± 0.057
18,TAAGGCCA,-0.193 ± 0.076
19,TCTGCGAA,0.201 ± 0.038
20,ACAGTTCT,0.16 ± 0.0018
21,CGAGCAAG,-0.162 ± 0.0036
22,ACGTGTCA,0.4563 ± 0.0033
23,CCACAAGC,-0.0952 ± 0.047
24,CAACGCCG,0.0783 ± 0.015
25,ACTCAGTA,-0.113 ± 0.082

row,Sequence,PBM E-score of 8-mer
1,GACTCAGC,-0.234 ± 0.068
2,CTACTCAA,-0.00664 ± 0.16
3,AAGGCACC,0.126 ± 0.043
4,CCGTGTAA,0.0629 ± 0.076
5,GCGGGGCA,-0.101 ± 0.012
6,CAGCTTTC,0.12 ± 0.0031
7,AACAGAAG,-0.188 ± 0.009
8,GACGACCC,-0.0887 ± 0.012
9,GCATCTAC,-0.0368 ± 0.025
10,CTGCTCTC,-0.208 ± 0.057
11,CGCCGTAC,-0.179 ± 0.0076
12,ACTCCGAG,-0.0996 ± 0.049
13,GAGGGTAA,-0.192 ± 0.004
14,ACCTCGGG,0.0398 ± 0.076
15,ACTCAATG,-0.108 ± 0.081
16,GTTTTATA,-0.196 ± 0.11
17,ACGATTCT,-0.106 ± 0.044
18,ACAAAACC,-0.058 ± 0.084
19,GACAGATC,0.0314 ± 0.067
20,CATTTATC,-0.0581 ± 0.028
21,AACTCCCT,-0.271 ± 0.044
22,AAGCGGAG,-0.167 ± 0.00073
23,CTCCGTAA,-0.0659 ± 0.014
24,CGCGACAG,0.308 ± 0.014
25,CGCACAGA,-0.108 ± 0.087

row,Sequence,PBM E-score of 8-mer
1,CCCATCTC,0.0496 ± 0.033
2,TGAACTAA,-0.00296 ± 0.034
3,AATGTACC,-0.0569 ± 0.04
4,CCTACTCA,0.0538 ± 0.0061
5,CGTTTCCC,0.0672 ± 0.036
6,CTCGAGAG,-0.142 ± 0.038
7,GGATAACC,-0.0815 ± 0.037
8,AAGTTATC,0.145 ± 0.054
9,GACCTGAC,-0.0852 ± 0.017
10,ACAGTGAA,0.189 ± 0.0048
11,AGAGGGCG,-0.00487 ± 0.023
12,GTAGGAGA,-0.233 ± 0.049
13,AAAGACAG,-0.273 ± 0.036
14,CCCAGTAG,-0.0881 ± 0.041
15,GGCATAAA,-0.09299 ± 0.00013
16,GAGGCCCA,-0.282 ± 0.024
17,AGCCCCTA,-0.0994 ± 0.03
18,GAGATCGC,0.203 ± 0.056
19,ACGGTGAG,0.12 ± 0.014
20,CCATGGTA,-0.141 ± 0.089
21,CATCCTGA,0.0899 ± 0.0052
22,CCCCCAAA,-0.323 ± 0.037
23,CCTCTGAG,0.0864 ± 0.024
24,TACCGCAA,0.0187 ± 0.013
25,ACACGTTG,0.374 ± 0.0049

row,Sequence,PBM E-score of 8-mer
1,ACATCCCC,0.118 ± 0.0023
2,AGAAACGA,-0.00754 ± 0.048
3,ATGCCCCG,-0.146 ± 0.048
4,CCTAAAGA,-0.0329 ± 0.051
5,AGTGGCTA,-0.118 ± 0.042
6,ACGAACAC,0.142 ± 0.025
7,TGGAAACA,-0.0822 ± 0.044
8,GAGATTCA,-0.126 ± 0.041
9,GTAATCGA,-0.00964 ± 0.098
10,TATTATCA,0.119 ± 0.11
11,CAATGACG,0.0903 ± 0.026
12,AGGCCTTA,-0.101 ± 0.098
13,ATGTAAGC,-0.0351 ± 0.048
14,TCTAATCA,-0.0644 ± 0.02
15,CATGCTTA,0.0523 ± 0.089
16,CTACGTAG,-0.146 ± 0.037
17,AAGCGTCT,-0.0765 ± 0.076
18,GGATTTTA,-0.15 ± 0.02
19,AAATCCTG,-0.069 ± 0.025
20,CACCGTAC,0.224 ± 0.0088
21,CGGAACTC,-0.14 ± 0.02
22,ACTATCAA,0.0759 ± 0.064
23,CCAGCCGA,0.0561 ± 0.0056
24,ACAAGCGG,-0.0757 ± 0.038
25,ATGAGAAC,-0.0696 ± 0.046

row,Sequence,PBM E-score of 8-mer
1,ATCATGAC,-0.0392 ± 0.062
2,AATAGACC,-0.3328 ± 0.0021
3,ACCGTAAT,-0.24 ± 0.036
4,GATGTCAC,0.304 ± 0.0034
5,AAGATCTT,-0.056 ± 0.015
6,CGGCGTCA,0.219 ± 0.03
7,CTTTTTAA,-0.0553 ± 0.088
8,CTCTGCAG,-0.079 ± 0.017
9,CAACTATG,-0.00808 ± 0.0084
10,CGATTTCA,0.0761 ± 0.02
11,CAGGACTA,-0.14 ± 0.02
12,CCCTTGAC,-0.0492 ± 0.044
13,CTCGTTTA,-0.262 ± 0.018
14,CGTTTCCA,-0.0174 ± 0.099
15,TAAGCGGA,-0.021 ± 0.11
16,CGTTAGCC,-0.0289 ± 0.004
17,CAGAACTA,-0.274 ± 0.028
18,CCCAACCC,-0.22 ± 0.05
19,ACGCCACT,0.255 ± 0.022
